# Assay results: the supplement of paper PMC8728848
# The list shows a part of the results.
# B1: E-Selectin (Homo sapiens), P16581 (protein)
# chain: MIASQFLSALTLVLLIKESGAWSYNTSTEAMTYDEASAYCQQRYTHLVAIQNKEEIEYLNSILSYSPSYYWIGIRKVNNVWVWVGTQKPLTEEAKNWAPGEPNNRQKDEDCVEIYIKREKDVGMWNDERCSKKKLALCYTAACTNTSCSGHGECVETINNYTCKCDPGFSGLKCEQIVNCTALESPEHGSLVCSHPLGNFSYNSSCSISCDRGYLPSSMETMQCMSSGEWSAPIPACNVVECDAVTNPANGFVECFQNPGSFPWNTTCTFDCEEGFELMGAQSLQCTSSGNWDNEKPTCKAVTCRAVRQPQNGSVRCSHSPAGEFTFKSSCNFTCEEGFMLQGPAQVECTTQGQWTQQIPVCEAFQCTALSNPERGYMNCLPSASGSFRYGSSCEFSCEQGFVLKGSKRLQCGPTGEWDNEKPTCEAVRCDAVHQPPKGLVRCAHSPIGEFTYKSSCAFSCEEGFELHGSTQLECTSQGQWTEEVPSCQVVKCSSLAVPGKINMSCSGEPVFGTVCKFACPEGWTLNGSAARTCGATGHWSGLLPTCEAPTESNIPLVAGLSAAGLSLLTLAPFLLWLRKCLRKAKKFVPASSCQSLESDGSYQKPSYIL
# Legend:
# Experiment in all cases: glycan array binding signal (z-score within array); higher = stronger binding
# Settings in all cases: glycan notation: IUPAC condensed, linker removed
# [1] = biological target: Fuc(a1-2)[GalNAc(a1-3)]Gal(b1-4)GlcNAc
# How it was run: (§1)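 Glycan array data were curated from 3228 arrays in the Consortium for Functional Glycomics database and kept only where the protein sequence was available. Glycan names were converted to IUPAC-condensed notation, and columns mapping to the same glycan were averaged. The binding signal is a within-array Z-score, averaged across arrays of the same protein sequence at different concentrations or buffers and across linkers. Negative Z-scores can be read as non-binding.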
# [2] = biological target: Fuc(a1-2)[GalNAc(a1-3)]Gal(b1-4)[Fuc(a1-3)]GlcNAc
# How it was run: as §1
# [3] = biological target: Fuc(a1-2)[GalNAc(a1-4)]Gal(b1-4)GlcNAc
# How it was run: as §1
# [4] = biological target: Fuc(a1-2)[GalNAc(b1-3)]Gal
# How it was run: as §1
# Fuc(a1-3)GlcNAc = biological target: Fuc(a1-3)GlcNAc
# How it was run: as §1
# [5] = biological target: Fuc(a1-3)[Gal(b1-4)]Glc6S
# How it was run: as §1
# [6] = biological target: Fuc(a1-3)[Gal(b1-4)]GlcNAc
# How it was run: as §1
# [7] = biological target: Fuc(a1-3)[Gal(b1-4)]GlcNAc(b1-2)Man(a1-3)[Fuc(a1-3)[Gal(b1-4)]GlcNAc(b1-2)Man(a1-6)]Man(b1-4)GlcNAc(b1-4)GlcNAc
# How it was run: as §1
# [8] = biological target: Fuc(a1-3)[Gal(b1-4)]GlcNAc(b1-2)Man(a1-6)[Gal(b1-4)GlcNAc(b1-2)Man(a1-3)]Man(b1-4)GlcNAc(b1-4)GlcNAc
# How it was run: as §1
# [9] = biological target: Fuc(a1-3)[Gal(b1-4)]GlcNAc(b1-3)Gal(b1-3)[Fuc(a1-4)]GlcNAc
# How it was run: as §1
# [10] = biological target: Fuc(a1-3)[Gal(b1-4)]GlcNAc(b1-4)Gal(b1-4)[Fuc(a1-3)]GlcNAc
# How it was run: as §1
# [11] = biological target: Fuc(a1-3)[Gal(b1-4)]GlcNAc(b1-4)Gal(b1-4)[Fuc(a1-3)]GlcNAc(b1-4)Gal(b1-4)[Fuc(a1-3)]GlcNAc
# How it was run: as §1
# [12] = biological target: Fuc(a1-3)[Gal(b1-4)]GlcNAc6S
# How it was run: as §1
# [13] = biological target: Fuc(a1-3)[Gal3S(b1-4)]Glc6S
# How it was run: as §1
# [14] = biological target: Fuc(a1-3)[Gal3S(b1-4)]GlcNAc
# How it was run: as §1
# [15] = biological target: Fuc(a1-3)[Gal3S(b1-4)]GlcNAc6S
# How it was run: as §1
# [16] = biological target: Fuc(a1-3)[GalNAc(b1-4)]GlcNAc
# How it was run: as §1
# Fuc(a1-4)GlcNAc = biological target: Fuc(a1-4)GlcNAc
# How it was run: as §1
# Fuc(b1-3)GlcNAc = biological target: Fuc(b1-3)GlcNAc
# How it was run: as §1
# Gal(a1-2)Gal = biological target: Gal(a1-2)Gal
# How it was run: as §1
# Gal(a1-3)Gal = biological target: Gal(a1-3)Gal
# How it was run: as §1
# Gal(a1-3)Gal(b1-3)GlcNAc = biological target: Gal(a1-3)Gal(b1-3)GlcNAc
# How it was run: as §1
# Gal(a1-3)Gal(b1-4)Glc = biological target: Gal(a1-3)Gal(b1-4)Glc
# How it was run: as §1
# Gal(a1-3)Gal(b1-4)GlcNAc = biological target: Gal(a1-3)Gal(b1-4)GlcNAc
# How it was run: as §1
# [17] = biological target: Gal(a1-3)Gal(b1-4)[Fuc(a1-3)]GlcNAc
# How it was run: as §1
# Gal(a1-3)GalNAc = biological target: Gal(a1-3)GalNAc
# How it was run: as §1
# [18] = biological target: Gal(a1-3)[Gal(a1-4)]Gal(b1-4)GlcNAc
# How it was run: as §1
# Gal(a1-4)Gal(b1-4)Glc = biological target: Gal(a1-4)Gal(b1-4)Glc
# How it was run: as §1
# Gal(a1-4)Gal(b1-4)GlcNAc = biological target: Gal(a1-4)Gal(b1-4)GlcNAc
# How it was run: as §1
# Gal(a1-4)GlcNAc = biological target: Gal(a1-4)GlcNAc
# How it was run: as §1
binder,measurement,setting,value
B1,glycan array binding signal (z-score),[1],-0.234
same,glycan array binding signal (z-score),[2],-0.166
same,glycan array binding signal (z-score),[3],-0.146
same,glycan array binding signal (z-score),[4],-0.145
same,glycan array binding signal (z-score),Fuc(a1-3)GlcNAc,-0.144
same,glycan array binding signal (z-score),[5],0.093
same,glycan array binding signal (z-score),[6],-0.178
same,glycan array binding signal (z-score),[7],-0.188
same,glycan array binding signal (z-score),[8],-0.419
same,glycan array binding signal (z-score),[9],-0.144
same,glycan array binding signal (z-score),[10],-0.096
same,glycan array binding signal (z-score),[11],-0.267
same,glycan array binding signal (z-score),[12],0.094
same,glycan array binding signal (z-score),[13],0.501
same,glycan array binding signal (z-score),[14],-0.022
same,glycan array binding signal (z-score),[15],0.687
same,glycan array binding signal (z-score),[16],-0.24
same,glycan array binding signal (z-score),Fuc(a1-4)GlcNAc,-0.173
same,glycan array binding signal (z-score),Fuc(b1-3)GlcNAc,-0.173
same,glycan array binding signal (z-score),Gal(a1-2)Gal,-0.263
same,glycan array binding signal (z-score),Gal(a1-3)Gal,0.359
same,glycan array binding signal (z-score),Gal(a1-3)Gal(b1-3)GlcNAc,-0.238
same,glycan array binding signal (z-score),Gal(a1-3)Gal(b1-4)Glc,-0.247
same,glycan array binding signal (z-score),Gal(a1-3)Gal(b1-4)GlcNAc,-0.209
same,glycan array binding signal (z-score),[17],-0.185
same,glycan array binding signal (z-score),Gal(a1-3)GalNAc,-0.172
same,glycan array binding signal (z-score),[18],-0.265
same,glycan array binding signal (z-score),Gal(a1-4)Gal(b1-4)Glc,-0.061
same,glycan array binding signal (z-score),Gal(a1-4)Gal(b1-4)GlcNAc,-0.114
same,glycan array binding signal (z-score),Gal(a1-4)GlcNAc,-0.127
